Test results taken from article PMC3365016.
No constants are given. Whether binding was seen depends on the method and setting. Binding seen in cells or lysates may run through a third protein. Some binding calls cover weakened binding; strength is not graded here. For some of these results: Where a sequence is shown, tags or fusion partners need not be part of it.

Columns and labels:
[1] = target: T1, V5-tagged G0S2 (G0/G1 switch gene 2), murine, full length (mouse) (UniProt Q61585); test: co-IP; reciprocal: anti-V5 or anti-nucleolin immunoprecipitation from lysates of EL4 and murine BM cells transduced with MIGR1 or MIGR1-G0S2 (V5-tagged); 150 mM NaCl, 50 mM Tris pH 8, 1% Triton X-100; immunoblot
T1 sequence: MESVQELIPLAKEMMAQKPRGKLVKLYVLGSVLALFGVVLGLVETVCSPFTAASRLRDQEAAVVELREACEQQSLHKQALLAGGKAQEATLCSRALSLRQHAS

[2] = target: T2, G0S2^1–26 (deletion of the C-terminal and HD domains) (mouse) (UniProt Q61585); test: co-IP; endogenous nucleolin and ectopic V5-tagged G0S2 (wild type or deletion mutants) in lysates of transduced NIH3T3 cells; 150 mM NaCl, 50 mM Tris pH 8, 1% Triton X-100; immunoblot
T2 sequence: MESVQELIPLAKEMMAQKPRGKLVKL

[3] = target: T3, G0S2-ΔHD (deletion of the hydrophobic domain) (mouse) (UniProt Q61585); test: as above
T3 sequence: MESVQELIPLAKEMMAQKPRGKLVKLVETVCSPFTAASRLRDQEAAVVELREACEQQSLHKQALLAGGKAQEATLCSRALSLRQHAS

[4] = target: T1, V5-tagged G0S2 (G0/G1 switch gene 2), murine, full length (mouse); test: as above
[5] = target: T4, G0S2^43–103 (deletion of the N-terminal and HD domains) (mouse) (UniProt Q61585); test: as above
T4 sequence: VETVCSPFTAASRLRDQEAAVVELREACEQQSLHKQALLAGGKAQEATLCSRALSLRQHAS

[6] = target: FLAG-tagged nucleolin, wild type, murine, full length (mouse) (UniProt P09405); test: co-IP; NIH3T3 cells co-transfected with V5-tagged G0S2 and FLAG-tagged nucleolin constructs, lysed after 48 h; 150 mM NaCl, 50 mM Tris pH 8, 1% Triton X-100; immunoblot
[7] = target: T5, FLAG-tagged nucleolin Ncl^1–286 (N-terminal domain, including the nuclear localization signal) (mouse) (UniProt P09405); test: as above
T5 sequence: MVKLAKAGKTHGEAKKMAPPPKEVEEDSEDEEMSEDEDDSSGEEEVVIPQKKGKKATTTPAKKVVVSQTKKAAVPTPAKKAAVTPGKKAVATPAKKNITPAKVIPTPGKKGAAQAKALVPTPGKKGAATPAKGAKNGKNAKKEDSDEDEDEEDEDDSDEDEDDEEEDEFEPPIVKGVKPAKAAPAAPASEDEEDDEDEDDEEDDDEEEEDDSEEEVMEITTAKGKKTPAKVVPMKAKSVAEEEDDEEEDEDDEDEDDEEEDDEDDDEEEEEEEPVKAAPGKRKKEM

[8] = target: FLAG-tagged nucleolin Ncl^287–707 (C-terminal domain, containing both the RBD and RGG-rich domains) (mouse) (UniProt P09405); test: as above
[9] = target: FLAG-tagged nucleolin Ncl-ΔRBDs (deletion of all of the RBD domains) (mouse) (UniProt P09405); test: as above
[10] = target: nucleolin, endogenous (mouse cells) (mouse (endogenous in EL4, murine BM cells, NIH3T3)) (UniProt P09405); test: co-IP; reciprocal: anti-V5 or anti-nucleolin immunoprecipitation from lysates of EL4 and murine BM cells transduced with MIGR1 or MIGR1-G0S2 (V5-tagged); 150 mM NaCl, 50 mM Tris pH 8, 1% Triton X-100; immunoblot

## nucleolin, endogenous (mouse cells) (from UniProt P09405 1-707)
[1]
  binding: binds
[2]
  binding: no binding
[3]
  binding: no binding
[4]
  binding: binds
[5]
  binding: no binding

B1: V5-tagged G0S2 (G0/G1 switch gene 2), murine, full length (protein, UniProt Q61585 1-103)
chain: T1 sequence
[6]
  binding: binds
[7]
  binding: no binding
[8]
  binding: binds
[9]
  binding: binds
[10]
  binding: binds
